In paper PMC10668032:
This is one part of the list. At the low end of the ranking the order means little.

Each sequence was assayed against SIX1-Q177R homeodomain (UniProt Q15475) (assay: universal protein binding microarray). Details: Universal all-10-mer PBM (8x60K, AMADID 030236), 300 nM GST-tagged protein, Alexa Fluor 488 anti-GST; buffer, salt, pH and temperature not stated; high values mean tight binding; most listed sequences are background and not binding sites; double strand, one strand shown.
With GGTATAGA the binding signal was 0.0769 E-score.
ATCACACC showed a binding signal of 0.442 E-score.
CCTCCCTC gave a binding signal of 0.0282 E-score.
CGTCTTCC gave a binding signal of 0.0116 E-score.
Work on ATATTTGA yielded a binding signal of -0.0434 E-score.
CGGGCTAG showed a binding signal of 0.0539 E-score.
Work on GCTAAGCA yielded a binding signal of -0.127 E-score.
For AACAGGCT, the binding signal was -0.0833 E-score.
ATTGTGCG showed a binding signal of -0.242 E-score.
In the case of AGTGATCG, the binding signal is reported as 0.00954 E-score.
Work on AGAGTATG yielded a binding signal of -0.193 E-score.
TAGCTAGA was tested, and the binding signal was -0.218 E-score.
ACGGCTAC was tested, and the binding signal was 0.131 E-score.
CTCTATGA was tested, and the binding signal was -0.182 E-score.
In the case of TCATTCGA, the binding signal is reported as -0.0272 E-score.
Sequence CCGCATTC has a binding signal of -0.292 E-score.
ATAAGCAT was tested, and the binding signal was -0.142 E-score.
Work on AGCGATGA yielded a binding signal of -0.0994 E-score.
With AGTGTAGG the binding signal was 0.411 E-score.
AACGCGGT gave a binding signal of 0.0755 E-score.
AGGATCGA was tested, and the binding signal was 0.144 E-score.
GAAGTGTA gave a binding signal of 0.368 E-score.
In the case of ACCAAACT, the binding signal is reported as -0.0694 E-score.
In the case of CGGCAAAA, the binding signal is reported as -0.0666 E-score.
TGAGTGCA showed a binding signal of 0.00261 E-score.
AAGGGGCA was tested, and the binding signal was -0.0365 E-score.
In the case of AAAACAGA, the binding signal is reported as -0.211 E-score.
Sequence AGGGTGCG has a binding signal of 0.226 E-score.
TATTAGAA was tested, and the binding signal was -0.117 E-score.
GGCTAAAC was tested, and the binding signal was -0.0876 E-score.
ACCCGCAT gave a binding signal of 0.135 E-score.
Sequence ACCTGCCA has a binding signal of -0.00664 E-score.
In the case of GGAATCCC, the binding signal is reported as 0.149 E-score.
With AGACGAGG the binding signal was -0.0152 E-score.
Work on GTCCGGTA yielded a binding signal of -0.0712 E-score.
TCAAGAAA was tested, and the binding signal was -0.17 E-score.
Work on ACAGAAGC yielded a binding signal of -0.119 E-score.
Sequence ACCGTGGA has a binding signal of 0.0592 E-score.
CAACCGGA gave a binding signal of -0.0947 E-score.
CTCTAATC showed a binding signal of 0.05 E-score.
In the case of CTCCCCAA, the binding signal is reported as 0.28 E-score.
ACTCAGCT gave a binding signal of -0.134 E-score.
ATTGCAGG was tested, and the binding signal was 0.0323 E-score.
CCCGGCTA was tested, and the binding signal was 0.107 E-score.
Sequence CCTGCGAA has a binding signal of -0.201 E-score.
Work on ATAACGAG yielded a binding signal of 0.0638 E-score.
CGTCCAGA was tested, and the binding signal was -0.0791 E-score.
Sequence GTCAGGCA has a binding signal of -0.0481 E-score.
With CGTTACCA the binding signal was 0.0433 E-score.
With TCTACCAA the binding signal was -0.104 E-score.
Sequence TACTGTAA has a binding signal of 0.089 E-score.
Work on GCAAAGGC yielded a binding signal of -0.186 E-score.
With AAGTCTGC the binding signal was -0.0996 E-score.
For TCGGCCGA, the binding signal was -0.103 E-score.
Work on GAAGGAAA yielded a binding signal of -0.202 E-score.
CAGCTTCG gave a binding signal of -0.132 E-score.
With GCCGCTTA the binding signal was -0.241 E-score.
AATCCTTA was tested, and the binding signal was 0.0413 E-score.
Sequence CAAACTGA has a binding signal of -0.0672 E-score.
TACCTTAA was tested, and the binding signal was -0.0269 E-score.
In the case of CGCAAGGA, the binding signal is reported as -0.067 E-score.
CGGCACAC was tested, and the binding signal was 0.208 E-score.
In the case of ACCTGAGC, the binding signal is reported as 0.0704 E-score.
Sequence TCTGCAGA has a binding signal of -0.183 E-score.
ATGCGCCA was tested, and the binding signal was -0.0656 E-score.
With GGAGGAGA the binding signal was 0.00223 E-score.
With GCGGGAGC the binding signal was -0.146 E-score.
ATGGCCAA was tested, and the binding signal was -0.264 E-score.
For CCCTACAG, the binding signal was -0.12 E-score.
With ATGTCGCC the binding signal was -0.0794 E-score.
Work on GACGGTGA yielded a binding signal of -0.132 E-score.
For AATATTAC, the binding signal was 0.00845 E-score.
Sequence ACGATAGA has a binding signal of 0.00649 E-score.
Sequence CGGATAGC has a binding signal of -0.0537 E-score.
With CCGTATTC the binding signal was 0.00109 E-score.
For AAAAGCAT, the binding signal was -0.27 E-score.
Sequence CATGACGG has a binding signal of -0.143 E-score.
CCCAGGAC showed a binding signal of 0.113 E-score.
Sequence ACTTGGTA has a binding signal of 0.0835 E-score.
In the case of CATTTCGA, the binding signal is reported as -0.225 E-score.
Sequence CTCCGAAC has a binding signal of -0.00335 E-score.
CGCAAATA showed a binding signal of -0.156 E-score.
With ACCATCAC the binding signal was 0.123 E-score.
In the case of GCACTGAA, the binding signal is reported as -0.208 E-score.
In the case of AAGAGGCG, the binding signal is reported as -0.193 E-score.
GAAAGGAC showed a binding signal of -0.0257 E-score.
